# Assay results taken from the RNAGym collection of RNA variant scans (doi:10.1093/nar/gkz1192).
# Read counts are not given, so values of variants with three or more changes are uncertain.
# B1: CPEB3 Ribozyme (parent)
# chain: UAACAGGGGGCCACAGCAGAAGCGUUCACGUCGCAGCCCCUGUCAGAUUCUGGUGAAUCUGCGAAUUCUGCUGUAUAUCUC
# Variants of: B1
# Assay: self-cleavage, relative activity (ratio to wild type); higher = more cleavage; in vitro, sequencing
# Summary of the method: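 After error-prone PCR and barcoding, CPEB3 ribozyme mutant libraries were transcribed with T7 RNA polymerase at 37°C for 5 hours, then given 15 min with DNase I before an EDTA stop, and they cleaved during both steps. Reverse transcription with template switching preceded Illumina sequencing. Relative activity divides a variant's cleaved/total read fraction by the unmutated ribozyme's. At least 5 reads were required per variant, and three batches were averaged.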
row,Variant,self-cleavage
1,U25C U72C U76C,0.19
2,U25G U49C A56G,0.43
3,U26A A47G U51C U76C,1.02
4,U26A U31C G46U U76A,0.06
5,U25C U66A U69C,0.22
6,U26A C34A U48C U67A,0.17
7,U26A A64G U69C,0.26
8,U26A A45U A64G A65G U66C U74A,0.12
9,U26A G46A C50G A57G,0.12
10,U26A A47G A75G,0.68
11,U26A A35G U69G,1.18
12,U26A A35G U69C,0.97
13,U26A A45U U67C,0.16
14,U26A A56G A77G U80C,0.5
15,U26A U31C C34U A65G,0.14
16,U26A A45U U48C U54A U58C U66C U72G,0.07
17,U25C U51C U60A U69C,0.11
18,U25C U67C U76A,0.06
19,U25C U58A U80C,0.09
20,U26A A28U A56G,0.54
21,U26A A28U A45U U49C U54C U58C A77G,0.1
22,U26A U41A A64U,0.31
23,U25C U51A G63A,0.26
24,U25C U58C C68A U74G,0.31

row,Variant,self-cleavage
1,U25C U72G U80C,0.08
2,U25G G33A A35G U72C G73C U78C,0.13
3,U26A C27U U58A U76A,0.17
4,U25C U66A U78C,0.32
5,U26A A64G U66C,0.17
6,U26A G30A A35G U41A G42U U78A,0.18
7,U26A A47G U60A A65U,0.18
8,U26A A64G U72C,0.61
9,U25C U60C C62U G70A,0.09
10,U26A A28U U43A U69C,0.07
11,U26A A28U U43C C59U,0.09
12,U26A C34G U58C,0.09
13,U26A C32A C39G U41C U54A U66C,0.08
14,U26A G36A A45G U67A U78C,0.05
15,U25G A35U A65C A77G,0.09
16,U26A A28U U54C U66C U72C,0.16
17,U26A A35U U69C,0.28
18,U26A U31C U43A A57U,0.08
19,U26A A45U A47U U60A,0.69
20,U26A U31G C44A,0.33
21,U26A A35G U54A U58C U60C A65G U72A,0.58
22,U26A U31A U41G U43C G55C A57G,0.09
23,U25C U69C A77U,0.13
24,U26A U41A U43A U54C,0.4

row,Variant,self-cleavage
1,U25C U60A U78C,0.17
2,U25C U60C U74C U78C,0.17
3,U25G U26A U43C U48C A64G,0.05
4,U26A A45U U51C A57U G63C A64G,0.04
5,U25G U43C U48C,0.28
6,U26A G33A U51A,0.32
7,U25C U58C A65U U78C,0.1
8,U25C U58C U74C,0.44
9,U25C U66A U67C,0.22
10,U25C U67C U80C,0.13
11,U26A A56G U74A,0.86
12,U25C U66C U72G U80C,0.42
13,U26A A45U U54G G61C C62U U67C U69C,0.06
14,U26A A45G U69C U72C,0.21
15,U25G A35U U67A,0.18
16,U26A C27U A45G A47U U60G U67C U80A,0.12
17,U25G G30A A57G U58C G70C,0.08
18,U25C U54A U60A U72G U80C,0.21
19,U26A A35G A56U A65G,0.75
20,U26A G61A U80C,0.89
21,U26A A57G U69C,0.3
22,U26A C32U U74A,0.25
23,U26A A56G U69C,0.28
24,U25C U76A A77G U80A,0.4

row,Variant,self-cleavage
1,U26A A28G U43C U78G,0.14
2,U26A C29A U69A,0.21
3,U25C U60C U74A U80A,0.4
4,U25C U49C A65G,0.13
5,U26A A47G U51C U74A,1.2
6,U25G U31C U74A,0.34
7,U25G U26A A35G A47U A56G C59U A65G,0.17
8,U26A A35C U41A A64U G73A U78C,0.1
9,U25C U54A A56U U69C,0.07
10,U26A A45U G46U A65U,0.16
11,U25C U69A U80A,0.21
12,U26A A45G U49C U58C,0.11
13,U26A A35G U54C U72C,1.26
14,U25G U26C C39U U41A A45U U51A U67C,0.12
15,U25G U48C A64G U69A U78C C81U,0.06
16,U25C U67A U80C,0.08
17,U25G C32A A45U,0.14
18,U25C U54G C62A,0.17
19,U25C U49C U54C C59U,0.14
20,U26A C27G U41A,0.21
21,U26A A35G C37U U60C U66C U76C,0.09
22,U26A A28G U60A A75G,0.12
23,U25C U49C U80C,0.73
24,U25C U60C U72C,0.15

row,Variant,self-cleavage
1,U26A U31A C39U U43C G55C A57G,0.12
2,U26A A28G A45G U74C,0.5
3,U25C U54C A57G,0.45
4,U26A C59A G73A,0.52
5,U25C U54C A56C G61A,0.07
6,U25C U76C A77G,0.45
7,U26A C39U U78C,0.33
8,U25G A47G U51C U58C,0.32
9,U26A A35U A75G C79U,0.21
10,U25G C29G U66C U80C,0.1
11,U26A C50U G53U A56U,0.21
12,U26A A28G C40A A56G U60A,0.05
13,U26A C32U G36A U67A,0.07
14,U26A A56U A57G U66A,0.13
15,U26A G61A C81U,0.83
16,U25C U51C U58A,0.2
17,U25C U51C U58G,0.16
18,U26A G46U U60C C71U,0.09
19,U26A U31A U43C G55C A57G U78C,0.08
20,U26A C40U A45G,0.45
21,U26A A35G U67A,1.38
22,U26A A28G A45G U66C,0.14
23,U26A A35G A47G U58A,0.62
24,U25C U58C U67C,0.14

row,Variant,self-cleavage
1,U26A A45G A56U U74A,0.34
2,U26A U31C U78C,0.65
3,U26A U31C U43A A75U,0.16
4,U26A A45C A65G U72C,0.19
5,U26A A57G U80C,0.93
6,U25C U51G U66C,0.07
7,U25C U49C A57G U58C,0.22
8,U26A A28G U49C U80C,0.05
9,U25G U49C A57G,0.13
10,U25G C34G A64G,0.12
11,U26A U31A U51A,0.54
12,U25G U43C U69C,0.12
13,U26A A45U A56G,0.32
14,U25G A45G U58C,0.14
15,U26A U31C C62U C68A,0.12
16,U26A A28C C44A U48C G52U,0.11
17,U26A A35U A64G U67A U69C,0.05
18,U25G A45G U60C,0.37
19,U25G U31C U76A,0.12
20,U26A A45G U78C,0.55
21,U25G C44A A64G,0.56
22,U26A A45U U78A U80C,0.29
23,U26A A35U U41A A47U U60C U66C,0.14
24,U26A A56G C68U,0.23

row,Variant,self-cleavage
1,U25C U49C U51A U67C U72C,0.18
2,U25C U67C A75U,0.17
3,U25C U49C A57U C59U U67A,0.06
4,U26A A35G U43C G70A U72C U74C,0.16
5,U25G U43C A47U A64G,0.08
6,U26A A35U A64G,0.25
7,U26A A47G U72C,0.99
8,U25C U49C G52A A64G G70C A75G,0.28
9,U26A A57U U60A U69C,0.2
10,U26A A47G U51C U72A,0.41
11,U26A G36U C40U,0.15
12,U25C U60C U80G,0.49
13,U25C U60C U80C,0.27
14,U26A A45G U66C A77U U80C,0.21
15,U26A C34U U51C U74A,0.32
16,U26A A35G U58C A77G,1.22
17,U25C U78A U80C,0.18
18,U25G U51C A56U U60A U69C A75G U80C,0.11
19,U25G G33A U41C,0.09
20,U26A U31C U41C U72C,0.41
21,U26A U31C U41C A45U A57G,0.16
22,U26A C40A A45G,0.16
23,U25G U31C U41C U78C,0.08
